This assay deals with Bifidobacterium brevis. As to the kind of experiment: Comparative aerobic culture on Schaedler 0.2% agar (Table 2). To be noted: 37° C., AA 1 g/L, UA 400 mg/L.

For `O=C1O[C@H]([C@@H](O)CO)C(O)=C1O` [ascorbic acid, reference compound], the “colonies detected with the naked eye at t=96 h” value turned out to be 0. As to `O=c1[nH]c(=O)c2[nH]c(=O)[nH]c2[nH]1` [uric acid, 7,9-dihydro-1H-purine-2,6,8(3H)-trione], the “colonies detected with the naked eye at t=96 h” value is “Positive”.

The values are drawn from patent US10626421B2, “Use of uric acid for culturing bacteria sensitive to oxygen tension” (FONDATION MEDITERRANEE INFECTION, priority 2014, dated 2020).
